According to paper PMC5786329:
Results are given in words; binding and its absence hold for the method and conditions named. In cells and extracts the contact can be indirect. Some results given as binding are weak or reduced against the parent protein; the word gives no strength.

Amino acid sequences for entries named in this document (tags omitted). A change or cut given only in a name is not applied to a line headed by its entry. Residues count along the entry.
UniProt P25054: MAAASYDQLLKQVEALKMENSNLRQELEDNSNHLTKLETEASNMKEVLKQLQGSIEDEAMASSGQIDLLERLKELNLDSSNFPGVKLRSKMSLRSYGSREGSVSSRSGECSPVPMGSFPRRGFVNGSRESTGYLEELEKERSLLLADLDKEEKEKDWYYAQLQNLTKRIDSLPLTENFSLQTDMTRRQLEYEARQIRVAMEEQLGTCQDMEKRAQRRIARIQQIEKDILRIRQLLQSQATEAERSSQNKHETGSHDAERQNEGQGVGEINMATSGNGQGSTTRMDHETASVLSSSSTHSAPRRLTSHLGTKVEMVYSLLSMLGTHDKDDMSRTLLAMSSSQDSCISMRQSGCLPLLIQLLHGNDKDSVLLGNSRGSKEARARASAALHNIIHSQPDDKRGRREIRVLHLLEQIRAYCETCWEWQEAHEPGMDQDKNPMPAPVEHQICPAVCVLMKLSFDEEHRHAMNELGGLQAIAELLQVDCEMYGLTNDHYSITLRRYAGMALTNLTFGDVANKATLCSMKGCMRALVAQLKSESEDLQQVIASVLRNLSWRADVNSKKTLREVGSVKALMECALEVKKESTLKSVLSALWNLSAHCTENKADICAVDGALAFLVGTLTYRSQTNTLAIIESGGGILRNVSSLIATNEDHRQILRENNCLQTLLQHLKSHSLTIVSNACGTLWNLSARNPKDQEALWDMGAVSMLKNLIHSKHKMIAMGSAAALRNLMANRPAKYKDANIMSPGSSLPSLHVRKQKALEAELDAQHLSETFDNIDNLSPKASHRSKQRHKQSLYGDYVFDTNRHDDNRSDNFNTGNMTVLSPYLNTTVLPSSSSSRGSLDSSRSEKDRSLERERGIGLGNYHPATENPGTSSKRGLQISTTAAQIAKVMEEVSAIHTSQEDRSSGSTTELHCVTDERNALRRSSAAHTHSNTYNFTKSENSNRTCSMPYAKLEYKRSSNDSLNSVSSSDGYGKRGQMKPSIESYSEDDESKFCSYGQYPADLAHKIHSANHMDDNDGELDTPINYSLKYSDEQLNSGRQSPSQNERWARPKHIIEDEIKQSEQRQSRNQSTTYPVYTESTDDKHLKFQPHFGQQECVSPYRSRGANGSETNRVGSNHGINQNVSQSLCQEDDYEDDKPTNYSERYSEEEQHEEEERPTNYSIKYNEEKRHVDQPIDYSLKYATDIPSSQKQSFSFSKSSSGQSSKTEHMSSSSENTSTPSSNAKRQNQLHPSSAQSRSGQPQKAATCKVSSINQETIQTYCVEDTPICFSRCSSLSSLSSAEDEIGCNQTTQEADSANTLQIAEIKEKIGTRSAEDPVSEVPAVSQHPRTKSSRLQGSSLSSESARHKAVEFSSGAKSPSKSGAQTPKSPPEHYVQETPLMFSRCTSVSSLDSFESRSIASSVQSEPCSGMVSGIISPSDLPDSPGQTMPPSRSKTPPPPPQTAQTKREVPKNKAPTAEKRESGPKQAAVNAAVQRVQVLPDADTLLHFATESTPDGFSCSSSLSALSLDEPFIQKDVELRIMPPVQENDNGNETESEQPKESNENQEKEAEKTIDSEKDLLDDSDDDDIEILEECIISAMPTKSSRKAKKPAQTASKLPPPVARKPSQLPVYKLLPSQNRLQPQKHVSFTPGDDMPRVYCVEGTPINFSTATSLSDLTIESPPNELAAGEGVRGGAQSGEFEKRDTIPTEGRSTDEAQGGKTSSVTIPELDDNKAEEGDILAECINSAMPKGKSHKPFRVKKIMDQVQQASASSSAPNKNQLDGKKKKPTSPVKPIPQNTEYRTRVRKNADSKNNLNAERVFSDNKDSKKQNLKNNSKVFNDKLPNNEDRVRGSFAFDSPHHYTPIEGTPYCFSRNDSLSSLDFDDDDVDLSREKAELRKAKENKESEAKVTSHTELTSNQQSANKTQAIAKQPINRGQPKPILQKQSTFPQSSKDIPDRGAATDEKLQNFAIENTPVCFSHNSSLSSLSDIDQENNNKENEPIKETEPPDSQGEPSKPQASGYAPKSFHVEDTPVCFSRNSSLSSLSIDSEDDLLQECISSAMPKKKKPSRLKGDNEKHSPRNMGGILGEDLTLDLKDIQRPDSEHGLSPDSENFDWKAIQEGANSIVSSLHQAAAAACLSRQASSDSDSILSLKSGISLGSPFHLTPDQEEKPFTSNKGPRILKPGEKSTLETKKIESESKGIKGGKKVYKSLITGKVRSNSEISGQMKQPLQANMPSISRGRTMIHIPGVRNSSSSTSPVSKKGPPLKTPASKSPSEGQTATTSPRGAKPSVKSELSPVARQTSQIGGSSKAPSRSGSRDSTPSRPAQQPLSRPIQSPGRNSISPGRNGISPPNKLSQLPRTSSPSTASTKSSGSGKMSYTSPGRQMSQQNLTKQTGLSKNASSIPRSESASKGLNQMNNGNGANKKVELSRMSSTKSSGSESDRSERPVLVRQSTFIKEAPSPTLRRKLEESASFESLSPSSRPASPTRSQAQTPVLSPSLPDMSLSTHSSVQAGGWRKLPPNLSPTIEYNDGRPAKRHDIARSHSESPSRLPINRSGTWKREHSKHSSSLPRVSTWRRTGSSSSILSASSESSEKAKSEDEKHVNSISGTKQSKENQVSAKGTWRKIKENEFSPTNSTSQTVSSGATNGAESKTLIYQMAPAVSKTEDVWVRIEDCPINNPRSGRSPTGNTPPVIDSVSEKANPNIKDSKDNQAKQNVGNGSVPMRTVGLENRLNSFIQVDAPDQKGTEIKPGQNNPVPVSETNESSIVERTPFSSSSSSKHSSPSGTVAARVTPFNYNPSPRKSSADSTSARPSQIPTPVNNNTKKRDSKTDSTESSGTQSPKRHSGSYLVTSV
adenomatous polyposis coli, C-terminally truncated, of SW480 cells (human (endogenous in SW480)): residues 1-1338 of P25054
UniProt P35222: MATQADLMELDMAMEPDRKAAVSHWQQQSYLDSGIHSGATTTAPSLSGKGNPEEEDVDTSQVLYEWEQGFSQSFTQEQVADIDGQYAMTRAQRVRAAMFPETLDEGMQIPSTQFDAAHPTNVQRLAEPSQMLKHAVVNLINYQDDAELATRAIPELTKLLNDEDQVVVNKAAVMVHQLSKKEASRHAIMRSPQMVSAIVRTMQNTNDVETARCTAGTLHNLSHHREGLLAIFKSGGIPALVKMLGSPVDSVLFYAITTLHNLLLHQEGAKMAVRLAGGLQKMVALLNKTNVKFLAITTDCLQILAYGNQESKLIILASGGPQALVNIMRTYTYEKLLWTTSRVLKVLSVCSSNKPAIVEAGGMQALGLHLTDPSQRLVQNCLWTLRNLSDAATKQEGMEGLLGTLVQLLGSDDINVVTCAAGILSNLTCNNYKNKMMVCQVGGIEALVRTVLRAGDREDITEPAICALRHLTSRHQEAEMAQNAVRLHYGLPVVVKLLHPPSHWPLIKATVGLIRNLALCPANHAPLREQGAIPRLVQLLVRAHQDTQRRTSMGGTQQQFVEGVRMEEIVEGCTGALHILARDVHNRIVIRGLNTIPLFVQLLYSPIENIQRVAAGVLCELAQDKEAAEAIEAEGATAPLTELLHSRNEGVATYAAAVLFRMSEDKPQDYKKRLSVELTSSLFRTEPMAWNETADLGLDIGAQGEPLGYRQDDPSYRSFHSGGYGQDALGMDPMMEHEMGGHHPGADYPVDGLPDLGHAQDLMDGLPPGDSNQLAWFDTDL
UniProt P49247: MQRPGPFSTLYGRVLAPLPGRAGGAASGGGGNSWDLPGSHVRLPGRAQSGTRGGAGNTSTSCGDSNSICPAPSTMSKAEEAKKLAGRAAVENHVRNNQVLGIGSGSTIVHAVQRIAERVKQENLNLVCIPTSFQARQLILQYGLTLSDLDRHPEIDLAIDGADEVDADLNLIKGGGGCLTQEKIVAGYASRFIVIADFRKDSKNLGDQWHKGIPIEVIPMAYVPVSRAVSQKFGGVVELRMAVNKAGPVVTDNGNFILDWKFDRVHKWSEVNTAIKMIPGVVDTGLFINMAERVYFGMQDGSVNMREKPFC

Tests used:
[1] = molecular target: adenomatous polyposis coli, wild type, of HCT116 cells (human (endogenous in HCT116)) (UniProt P25054); assay: co-IP; HCT116 cytoplasmic fraction; cells transfected with pcDNA, RPIA-WT or RPIA-ΔD; 100 μg lysate with anti-APC, anti-β-catenin or anti-RPIA antibody overnight, protein A/G-Sepharose 1.5 h, western blot
[2] = molecular target: adenomatous polyposis coli, C-terminally truncated, of SW480 cells (human (endogenous in SW480)) (UniProt P25054); assay: co-IP; SW480 cytoplasmic fraction; cells transfected with pcDNA, RPIA-WT or RPIA-ΔD; 100 μg lysate with anti-APC, anti-β-catenin or anti-RPIA antibody overnight, protein A/G-Sepharose 1.5 h, western blot
[3] = molecular target: β-catenin of SW480 cells (human (endogenous in SW480)) (UniProt P35222); assay: as above
[4] = molecular target: adenomatous polyposis coli, C-terminally truncated, of SW480 cells (human (endogenous in SW480)) (UniProt P25054); assay: co-IP; SW480 nuclear fraction; cells transfected with pcDNA, RPIA-WT or RPIA-ΔD; 100 μg lysate with anti-APC, anti-β-catenin or anti-RPIA antibody overnight, protein A/G-Sepharose 1.5 h, western blot
[5] = molecular target: β-catenin of SW480 cells (human (endogenous in SW480)) (UniProt P35222); assay: as above
[6] = molecular target: adenomatous polyposis coli, wild type, of HCT116 cells (human (endogenous in HCT116)) (UniProt P25054); assay: co-IP; HCT116 nuclear fraction; cells transfected with pcDNA, RPIA-WT or RPIA-ΔD; 100 μg lysate with anti-APC, anti-β-catenin or anti-RPIA antibody overnight, protein A/G-Sepharose 1.5 h, western blot

| binding [1] | binding [2] | binding [3] | binding [4] | binding [5] | binding [6] | Substance |
| --- | --- | --- | --- | --- | --- | --- |
| no binding | no binding | no binding | no binding | no binding | no binding | RPIA deletion domain D mutant (from UniProt P49247 1-289) (domain or fragment) |
| binds |  | binds | binds | binds | binds | ribose-5-phosphate isomerase A, wild type (from UniProt P49247 1-311) (enzyme) |
